PubChem BioAssay AID602310 (National Center for Advancing Translational Sciences (NCATS), 2012)
Several values for one entry are separate records, joined by “and”; a condition that tells them apart may be missing. Identical values can stand only once. Out of some 410,000 compounds screened, about 310 (0.076%) were called active. The inconclusive results got no clear call from the source; some entries with a clear call stand among them for comparison. The call rests on the fitted dose curve; in most records, active means well fitted curve in the direction sought with a large enough effect; inconclusive means small, poorly fitted or top-dose-only effect; inactive means flat fitted curve, though single readings scatter. Potencies of inconclusive entries are doubtful fits and often do not repeat.

molecular target: DNA dC->dU-editing enzyme APOBEC-3G (Homo sapiens) (UniProt Q9HC16); assay: qHTS for Inhibitors of Vif-A3G Interactions: qHTS; conditions: HeLa A3G-eYFP + Vif (tagged APOBEC3G with the HIV-1 protein that degrades it), YFP fluorescence, overnight; series mostly up to 46.1 µM; further: nearly all actives have a fitted effect of over 60% in size
UniProt Q9HC16, sequence (Q9HC16 whole entry, looked up): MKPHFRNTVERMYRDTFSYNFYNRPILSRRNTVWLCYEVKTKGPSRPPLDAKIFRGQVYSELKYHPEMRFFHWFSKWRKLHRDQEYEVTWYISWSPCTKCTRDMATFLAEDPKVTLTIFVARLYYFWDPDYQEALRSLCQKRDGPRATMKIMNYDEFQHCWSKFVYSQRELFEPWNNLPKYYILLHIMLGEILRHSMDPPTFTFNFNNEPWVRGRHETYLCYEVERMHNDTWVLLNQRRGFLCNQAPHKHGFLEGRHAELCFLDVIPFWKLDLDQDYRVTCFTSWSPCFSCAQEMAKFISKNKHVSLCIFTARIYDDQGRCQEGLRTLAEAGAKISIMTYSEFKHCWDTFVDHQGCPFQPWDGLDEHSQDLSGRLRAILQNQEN
Outline: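 Read-out is eYFP fluorescence (Ex 488/Em 500-530) from Vif-expressing HeLa A3G-eYFP cells; more signal means A3G escaped Vif-mediated degradation. Cells plated overnight, compound pinned in, incubated overnight at 37 deg C.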
Potency means the concentration at half of the fitted maximal effect; tags describe the fitted curve by direction and shape.

SMILES	Potency
COc1cc(NC(=O)COC(=O)c2n[nH]c3ccccc23)c(C)cc1[N+](=O)[O-]	inactive
Cc1ccc(NC(=O)COC(=O)CSC(=S)N2CCOCC2)cc1C	inactive
O=C(CCl)N1CCN(S(=O)(=O)Cc2ccccc2)CC1	inconclusive: 28.2 µM [inhibitor, single point]
CCCCC[C@@H](/C=C/C1C(=O)C=C[C@H]1C/C=C\CCCC(=O)OC)OC(C)=O (stereo partly drawn)	inconclusive: 22.4 µM [inhibitor, single point]
Cc1ccc2c(c1)c1nc3ccccc3nc1n2C	inconclusive: 35.5 µM [inhibitor, single point]
CCOC(=O)c1cc(C(=O)c2cc(Cl)ccc2O)coc1=N	inconclusive: 17.8 µM [inhibitor, single point]
O=C(N/N=C/C=C/c1ccco1)c1ccccc1Cl	inconclusive: 25.1 µM [inhibitor, single point]
CC1(Cc2ccccc2C#N)C(=O)Nc2ccc(-c3ccc4[nH]ccc4c3)cc21 (stereo not drawn)	inconclusive: 1.26 µM [inhibitor, full curve, poor fit]
Cc1ccc2nsnc2c1NC(=O)c1ccc(-c2cc(Cl)ccc2Cl)o1	inconclusive: 15.8 µM [inhibitor, partial curve, poor fit]
O=C(C1=C[C@H](c2csc3ccccc23)C[C@H](OCCCCO)O1)N1CCN(Cc2ccc3c(c2)OCO3)CC1	inactive
Cc1ccc(Cc2c(-c3ccc(F)cc3)nc3cc(C)ccn23)cc1	inconclusive: 35.5 µM [inhibitor, single point]
CN1CCN(Cc2c(O)ccc3cc(-c4ccc(Cl)cc4)c(=O)oc23)CC1	inactive
Cc1cc(NC(=O)NC(=O)c2ccccc2NC(=O)C(C)N)ccc1Oc1ncc(Br)cn1 (stereo not drawn)	inconclusive: 1 µM [inhibitor, full curve, poor fit]
Cc1cc(C)n(-c2nc3c(c(=O)[nH]c(=O)n3C)n2CC(O)COc2ccc(Cl)cc2Cl)n1 (stereo not drawn)	inconclusive: 1.41 µM [inhibitor, full curve, poor fit]
COc1cnc(-c2ccccn2)nc1Sc1ccccc1Cl	inactive
Cc1ccc(C(=O)NC2CC(C)(C)NC(C)(C)C2)cc1	inactive
N#CC(C(=O)Nc1ccccc1)=C1Nc2ccccc2N1	inactive
COc1ccc(/C=N/NC(=O)c2ccccc2Cl)cc1CSc1nc2ccccc2s1	inconclusive: 2.51 µM [inhibitor, full curve, poor fit]
C/C(CCC1CC(C)(C)OC1=O)=N\NC(N)=S (stereo not drawn)	inconclusive: 25.1 µM [inhibitor, single point]
O=c1oc2c3c4c(cc2c(C(F)(F)F)c1CCN1CCOCC1)CCCN4CCC3	inconclusive: 12.6 µM [inhibitor, partial curve, poor fit]
Cc1ccc(/C=N/NC(=O)c2cc(C)oc2C)cc1	active: 7.94 µM
CCOC(=O)c1ccc(N=c2sc(C(=O)OC)cc(=O)n2-c2ccc(C(=O)OCC)cc2)cc1	inconclusive: 31.6 µM [inhibitor, partial curve, poor fit]
Cc1ccc(C(=O)NC2c3ccccc3-c3ccccc32)cc1	inconclusive: 2.51 µM [inhibitor, partial curve, poor fit]

SMILES	Potency
CCOc1ccccc1C1N=C(c2ccc(OC)cc2)CC(c2ccccc2O)N1 (stereo not drawn)	inconclusive: 11.2 µM [inhibitor, single point]
CN(CC(=O)Nc1ccccc1Cl)C1CCCCC1	inactive
Oc1ccc(NCc2ccc(OCc3ccccc3)cc2)cc1	inconclusive: 25.1 µM [inhibitor, single point] and inconclusive: 17.8 µM [inhibitor, single point]
O=C(N/N=C/c1ccccc1)c1cccc2ccccc12	inconclusive: 22.4 µM [inhibitor, single point]
CCc1ccc(C(=O)c2cn(CC(=O)Nc3cc(F)ccc3F)c3nc(C)ccc3c2=O)cc1	inconclusive: 25.1 µM [inhibitor, single point]
Cc1ccc(-n2cc(C(=O)c3cc(Cl)ccc3O)cc(C#N)c2=O)cc1	inactive
COc1ccc(-n2c(C)cc(/C=C3\C(=N)N4N=C(CC(=O)N5CCOCC5)SC4=NC3=O)c2C)c(OC)c1	inconclusive: 1 µM [inhibitor, full curve, poor fit]
CC1(C)CC(=O)C2=C(C1)Nc1ccccc1NC2c1ccc(F)cc1 (stereo not drawn)	inconclusive: 6.31 µM [inhibitor, single point]
CCOC(=O)c1ccc(NC(=O)Cn2ncc(Cl)c(Cl)c2=O)cc1	inconclusive: 7.94 µM [inhibitor, partial curve, poor fit]
Cc1ccc(SC2=C(N(C)C)C(=O)c3ccccc3C2=O)cc1	inconclusive: 7.08 µM [inhibitor, partial curve, poor fit]
COc1ccccc1OCCN1CSC(=S)N(C)C1	inconclusive: 3.16 µM [inhibitor, partial curve, poor fit]
CCN=C1S/C(=C\c2ccc(N3CCOCC3)cc2C)C(=O)N1CC	inconclusive: 2.82 µM [inhibitor, single point]
Cc1ccc(-c2csc(NC(=S)NC(=O)/C=C/c3ccco3)n2)cc1	inconclusive: 2.51 µM [inhibitor, full curve, poor fit]
CCCC(C)c1nnc(NC(=O)c2cc(C(=O)OC)cc([N+](=O)[O-])c2)s1 (stereo not drawn)	inactive
CC(C)Oc1ccc(Cl)cc1Nc1nc(NCCO)nc(N2CCCC2)n1	inactive
COc1ccc(-c2cnc3c(NC(C)=O)cc(-c4ccccc4OC)cn23)cc1OC	inconclusive: 3.55 µM [inhibitor, partial curve, poor fit]
CC1(C)Cc2nc3sc4c(=O)n(CC(=O)NCc5ccccc5)cnc4c3cc2CO1	inconclusive: 3.98 µM [inhibitor, full curve]
COc1ccc2c(c1O)-c1ccccc1CCN(C)C2	inactive
O=C(NN=C1CCCC1)c1n[nH]c2c1CCC2	inconclusive: 6.31 µM [inhibitor, full curve]
CCOC(=O)Nc1ccc2nc(Sc3ccc(Cl)cc3)sc2c1	inconclusive: 2 µM [inhibitor, partial curve, poor fit]
CCOC(=O)c1[nH]c(C)c(/C(O)=C2\C(=O)C(=O)N(CCN3CCOCC3)C2c2cccs2)c1C (stereo not drawn)	inconclusive: 22.4 µM [inhibitor, single point]
COc1ccc(CNC(=O)C2(C)Cc3c(-c4cccc(NC(C)=O)c4)ccnc3O2)cc1OC (stereo not drawn)	inconclusive: 35.5 µM [inhibitor, partial curve, poor fit]
Cc1ccc(NC(=O)CN(C)C(=O)Cn2ncc(Cl)c(Cl)c2=O)cc1	inconclusive: 14.1 µM [inhibitor, single point]

SMILES	Potency
COc1ccccc1N1CCN(C(=O)c2cc(=O)c3cc(C)ccc3o2)CC1	inconclusive: 7.94 µM [inhibitor, partial curve, poor fit]
O=C(c1ccc2ncsc2c1)N1CCN(c2cccc(C(F)(F)F)c2)CC1	inconclusive: 3.55 µM [inhibitor, full curve, poor fit]
COCCCNC(=O)c1ccc(Cn2c(=O)c3cccn3c3cccnc32)cc1	inconclusive: 10 µM [inhibitor, partial curve, poor fit]
Cn1c(=NC(=O)CS(=O)(=O)c2ccccc2)sc2ccccc21	inactive
O=C(/C(=C/c1cccc(Cl)c1)c1nc2ccccc2[nH]1)c1ccccc1	inconclusive: 6.31 µM [inhibitor, full curve, poor fit]
CCN(CC)CCCNC(=O)c1cc2c(-c3cccc(OC)c3)nn(C)c2s1	inactive
CCOC(=O)C(C(=O)OCC)C(Nc1cccc(Br)c1)c1ccccc1 (stereo not drawn)	inconclusive: 10 µM [inhibitor, partial curve, poor fit]
Clc1ccccc1C1CC(c2ccccc2)=Nc2ccccc2N1 (stereo not drawn)	inactive
Cc1ccc(N(C(C)C(=O)Nc2cc(Cl)ccc2Oc2ccccc2)S(C)(=O)=O)cc1 (stereo not drawn)	inactive
O=S(=O)(Nc1ccc(-c2ccc(NS(=O)(=O)c3ccccc3)cc2)cc1)c1ccccc1	inactive
O=C1NCCN1c1ncc([N+](=O)[O-])s1	inactive
Nc1ccc2nc(NC(=O)C3CCCCC3)sc2c1	inconclusive: 7.08 µM [inhibitor, full curve, poor fit]
CC(C)N(Cc1nc(-c2ccc(Cl)cc2)no1)C(=O)c1ccco1	inactive
COc1cccc(-c2ccc(-c3noc(-c4cccs4)n3)c(OC)n2)c1	inactive
CCC1Sc2ccc(S(=O)(=O)CCC(=O)NCc3ccco3)cc2NC1=O (stereo not drawn)	inconclusive: 25.1 µM [inhibitor, partial curve, poor fit]
O=C(CONS(=O)(=O)c1ccc(Cl)cc1)NCCNc1ncc(C(F)(F)F)cc1Cl	inactive
CC(C)OCCCNC(=O)CN1C(=O)c2ccccc2Sc2ncccc21	inactive
N#CC1=C(N)Oc2cc(N)ccc2C1c1ccccc1Cl (stereo not drawn)	inconclusive: 22.4 µM [inhibitor, single point]
CC(=O)n1cc(N(C(=O)CCl)c2ccc(Cl)cc2)c2ccccc21	inconclusive: 10 µM [inhibitor, partial curve, poor fit]
Cc1cc(Cl)ccc1OCC(=O)N(Cc1ccc(N(C)C)cc1)C1CCS(=O)(=O)C1 (stereo not drawn)	inactive
COc1ccc(OCCN2CCC(C(=O)NC(c3ccc(Cl)cc3)c3cccnc3)CC2)cc1 (stereo not drawn)	inactive
CCOc1ccccc1N1CC(O)=C(c2nc3ccccc3s2)C1=N	inconclusive: 1.78 µM [inhibitor, partial curve, poor fit]
